Assay results from patent publication US20050191293A1 (Bristol-Myers Squibb, published 2005).

Target: T1, human CXCR3 (human, UniProt P49682 1-368)
T1 construct: On 300.19 cells transfected to express CXCR3; also called receptor for IP-10
T1 sequence: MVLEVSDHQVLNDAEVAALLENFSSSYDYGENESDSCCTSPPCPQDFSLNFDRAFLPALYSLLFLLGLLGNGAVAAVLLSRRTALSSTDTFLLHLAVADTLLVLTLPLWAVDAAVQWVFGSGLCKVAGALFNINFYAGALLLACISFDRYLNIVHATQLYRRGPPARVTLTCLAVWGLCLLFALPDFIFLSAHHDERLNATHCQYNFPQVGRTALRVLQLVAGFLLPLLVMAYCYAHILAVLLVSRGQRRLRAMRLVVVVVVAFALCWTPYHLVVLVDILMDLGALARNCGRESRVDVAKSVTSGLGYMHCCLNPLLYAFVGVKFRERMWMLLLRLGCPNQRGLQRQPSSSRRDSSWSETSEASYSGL
Experiment: Scatchard analysis, 125I-IP-10 binding to 300.19 cells transfected to express CXCR3
Method: The cells were grown in RPMI media containing 10% FCS and G418 selection. Prior to use, the cells were washed twice with Hank's Balanced Salt Solution (HBSS) at 4° C. and adjusted to 4×10⁷ cells/ml. Glass fiber plates (Millipore MultiScreen®, Cat. #MAFBNOB50) were blocked with 200 μl of a 0.1% polyethyleneimine solution one day prior to the experiment. On the day of the study, the blocking buffer was aspirated by using a Millipore manifold. The plates were washed three times with 200 μl of binding buffer (50 mM HEPES, pH 7.2, 1 mM CaCl₂, 5 mM MgCl₂, 0.5% BSA). […] The plates were incubated on a plate shaker for 60 minutes at room temperature and washed three times with wash buffer (10 mM HEPES, pH 7.2, 0.5 M NaCl, 0.5% BSA) at a volume of 200 μl per wash. The plates were dried, 25 μl of scintillant was added and the plates were counted on a Wallac Microbeta Counter. Data were analyzed using Prism software and a KD was calculated.

Kd: 0.231 nM
B1: human IP-10 (interferon gamma inducible protein 10) (ligand)
chain: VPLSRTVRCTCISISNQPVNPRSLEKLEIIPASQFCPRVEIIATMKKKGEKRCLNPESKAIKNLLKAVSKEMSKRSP
notes: Native IP-10 from THP-1 supernatant and from MS patient CSF in the migration assays is also put under this molecule; also called CXCL10; rhIP-10
